Results reported in the supplement of paper PMC4604168 (melanoma cell lines).
This is one part of the list. Repeats are few or missing, and single values can be far off.

How the values were obtained:
Test in all cases: cell count relative to DMSO control; melanoma cells; higher = more viable cells
Conditions in all cases: library dose: low library concentration; 72 h
[1] = tested on: MZ2-MEL
[2] = tested on: MeWo
[3] = tested on: RPMI7951
[4] = tested on: RVH-421
[5] = tested on: SkMel28
[6] = tested on: SkMel2
[7] = tested on: SkMel30
[8] = tested on: UACC62
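Further: cell number obtained by counting DAPI-stained nuclei in high-throughput microscope images with image analysis software, screen run in 1,536-well plates.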

SMILES | cell count [1] [%] | cell count [2] [%] | cell count [3] [%] | cell count [4] [%] | cell count [5] [%] | cell count [6] [%] | cell count [7] [%] | cell count [8] [%]
COc1cc([C@@H]2c3cc4c(cc3[C@@H](O[C@@H]3O[C@@H]5CO[C@@H](C)O[C@H]5[C@H](O)[C@H]3O)[C@H]3COC(=O)[C@H]23)OCO4)cc(OC)c1O [etoposide] + Cc1cc(Nc2cc(N3CCN(C)CC3)nc(/C=C/c3ccccc3)n2)n[nH]1 [ENMD2076] (first compound 0.02 µM, partner dose 0.04 µM) | 96.2 | 90.9 | 102 | 79.6 | 87 | 99.1 | 101 | 82.7
COc1cc([C@@H]2c3cc4c(cc3[C@@H](O[C@@H]3O[C@@H]5CO[C@@H](C)O[C@H]5[C@H](O)[C@H]3O)[C@H]3COC(=O)[C@H]23)OCO4)cc(OC)c1O [etoposide] + COc1ccc(Cl)c(Nc2nc3ccccc3nc2NS(=O)(=O)c2cccc(NC(=O)C(C)(C)N)c2)c1 [XL147] (first compound 0.02 µM, partner dose 0.8 µM) | 88.1 | 83.9 | 106 | 88.6 | 101 | 91.4 | 85.7 | 81.6
COc1cc([C@@H]2c3cc4c(cc3[C@@H](O[C@@H]3O[C@@H]5CO[C@@H](C)O[C@H]5[C@H](O)[C@H]3O)[C@H]3COC(=O)[C@H]23)OCO4)cc(OC)c1O [etoposide] + Clc1ccc(Nc2nnc(Cc3ccncc3)c3ccccc23)cc1 [vatalanib] (first compound 0.02 µM, partner dose 2 µM) | 91.4 | 83.2 | 93.4 | 98.7 | 82.6 | 86.8 | 110 | 79.7
Cn1cnc2c(F)c(Nc3ccc(Br)cc3Cl)c(C(=O)NOCCO)cc21 [selumetinib] + CCN(CC)CCNC(=O)c1c(C)[nH]c(/C=C2\C(=O)Nc3ccc(F)cc32)c1C [sunitinib] (first compound 0.015 µM, partner dose 0.4 µM) | 99.9 | 83.1 | 92.5 | 104 | 62.7 | 80.7 | 63.5 | 69.2
C[C@]1(O)C[C@@H](c2nc(-c3ccc4ccc(-c5ccccc5)nc4c3)c3c(N)nccn32)C1 + Cc1cc(Nc2cc(N3CCN(C)CC3)nc(/C=C/c3ccccc3)n2)n[nH]1 [ENMD2076] (first compound 0.4 µM, partner dose 0.04 µM) | 98.8 | 101 | 101 | 107 | 98.3 | 91.2 | 76 | 72.5
COc1cc([C@@H]2c3cc4c(cc3[C@@H](O[C@@H]3O[C@@H]5CO[C@@H](C)O[C@H]5[C@H](O)[C@H]3O)[C@H]3COC(=O)[C@H]23)OCO4)cc(OC)c1O [etoposide] + CCCCCCCCc1ccc(CCC(N)(CO)CO)cc1 [fingolimod] (first compound 0.02 µM, partner dose 2 µM) | 86.9 | 83.1 | 80.3 | 75.7 | 79.5 | 91.9 | 95.1 | 59.7
COc1cc([C@@H]2c3cc4c(cc3[C@@H](O[C@@H]3O[C@@H]5CO[C@@H](C)O[C@H]5[C@H](O)[C@H]3O)[C@H]3COC(=O)[C@H]23)OCO4)cc(OC)c1O [etoposide] + CN(c1ncccc1CNc1nc(Nc2ccc3c(c2)CC(=O)N3)ncc1C(F)(F)F)S(C)(=O)=O [PF562271] (first compound 0.02 µM, partner dose 0.08 µM) | 88 | 94.5 | 89.8 | 99.5 | 72.8 | 82.6 | 110 | 71.9
Cn1cnc2c(F)c(Nc3ccc(Br)cc3Cl)c(C(=O)NOCCO)cc21 [selumetinib] + CNC(=O)c1cc(Oc2ccc(NC(=O)Nc3ccc(Cl)c(C(F)(F)F)c3)cc2)ccn1 [sorafenib] (first compound 0.015 µM, partner dose 0.4 µM) | 125 | 99.8 | 112 | 69.4 | 76 | 81.7 | 93.2 | 66.1
Cn1cnc2c(F)c(Nc3ccc(Br)cc3Cl)c(C(=O)NOCCO)cc21 [selumetinib] + CS(=O)(=O)CCNCc1ccc(-c2ccc3ncnc(Nc4ccc(OCc5cccc(F)c5)c(Cl)c4)c3c2)o1 [lapatinib] (first compound 0.015 µM, partner dose 0.8 µM) | 86.4 | 89.3 | 113 | 79.9 | 71.1 | 77.3 | 59 | 66.4
COc1cc([C@@H]2c3cc4c(cc3[C@@H](O[C@@H]3O[C@@H]5CO[C@@H](C)O[C@H]5[C@H](O)[C@H]3O)[C@H]3COC(=O)[C@H]23)OCO4)cc(OC)c1O [etoposide] + C[C@]1(c2nc3c(C(N)=O)cccc3[nH]2)CCCN1 [Veliparib] (first compound 0.02 µM, partner dose 1.4 µM) | 89.8 | 86.6 | 101 | 106 | 104 | 90.4 | 103 | 98.2
C[C@]1(O)C[C@@H](c2nc(-c3ccc4ccc(-c5ccccc5)nc4c3)c3c(N)nccn32)C1 + CCN(CC)CCNC(=O)c1c(C)[nH]c(/C=C2\C(=O)Nc3ccc(F)cc32)c1C [sunitinib] (first compound 0.4 µM, partner dose 0.4 µM) | 106 | 77.4 | 88.6 | 87.3 | 86.1 | 92 | 75.3 | 85.9
Cn1cnc2c(F)c(Nc3ccc(Br)cc3Cl)c(C(=O)NOCCO)cc21 [selumetinib] + Cn1c(=O)n(-c2ccc(C(C)(C)C#N)cc2)c2c3cc(-c4cnc5ccccc5c4)ccc3ncc21 [NVP-BEZ235] (first compound 0.015 µM, partner dose 0.004 µM) | 84.8 | 81.2 | 131 | 66.9 | 67.8 | 63.8 | 61.1 | 56.4
COc1cc([C@@H]2c3cc4c(cc3[C@@H](O[C@@H]3O[C@@H]5CO[C@@H](C)O[C@H]5[C@H](O)[C@H]3O)[C@H]3COC(=O)[C@H]23)OCO4)cc(OC)c1O [etoposide] + CS(=O)(=O)c1ccc(C(=O)Nc2ccc(Cl)c(-c3ccccn3)c2)c(Cl)c1 [vismodegib] (first compound 0.02 µM, partner dose 1 µM) | 80 | 103 | 105 | 127 | 101 | 86.8 | 110 | 76.6
C[C@]1(O)C[C@@H](c2nc(-c3ccc4ccc(-c5ccccc5)nc4c3)c3c(N)nccn32)C1 + CCCS(=O)(=O)Nc1ccc(F)c(C(=O)c2c[nH]c3ncc(Cl)cc23)c1F [PLX4720] (first compound 0.4 µM, partner dose 0.08 µM) | 85.1 | 104 | 93.8 | 79.5 | 86.5 | 85.7 | 79.7 | 63.6
C[C@]1(O)C[C@@H](c2nc(-c3ccc4ccc(-c5ccccc5)nc4c3)c3c(N)nccn32)C1 + CS(=O)(=O)c1ccc(C(=O)Nc2ccc(Cl)c(-c3ccccn3)c2)c(Cl)c1 [vismodegib] (first compound 0.4 µM, partner dose 1 µM) | 91.4 | 91.2 | 92.8 | 129 | 93.7 | 75.7 | 80.6 | 92.8
COc1cc([C@@H]2c3cc4c(cc3[C@@H](O[C@@H]3O[C@@H]5CO[C@@H](C)O[C@H]5[C@H](O)[C@H]3O)[C@H]3COC(=O)[C@H]23)OCO4)cc(OC)c1O [etoposide] + Cn1cnc2c(F)c(Nc3ccc(Br)cc3Cl)c(C(=O)NOCCO)cc21 [selumetinib] (first compound 0.02 µM, partner dose 0.015 µM) | 86.3 | 87.6 | 105 | 79.4 | 87.9 | 79.9 | 77.4 | 69.3
CCN(CC)CCNC(=O)c1c(C)[nH]c(/C=C2\C(=O)Nc3ccc(F)cc32)c1C [sunitinib] + C=C(c1ccc(C(=O)O)cc1)c1cc2c(cc1C)C(C)(C)CCC2(C)C [Bexarotene] (first compound 0.4 µM, partner dose 2 µM) | 117 | 74.2 | 106 | 149 | 101 | 107 | 90.3 | 93.5
Cn1cnc2c(F)c(Nc3ccc(Br)cc3Cl)c(C(=O)NOCCO)cc21 [selumetinib] + CCCCCCCCc1ccc(CCC(N)(CO)CO)cc1 [fingolimod] (first compound 0.015 µM, partner dose 2 µM) | 78.9 | 86.1 | 99.2 | 75.5 | 79.1 | 64.8 | 46.5 | 53.5
Cn1cnc2c(F)c(Nc3ccc(Br)cc3Cl)c(C(=O)NOCCO)cc21 [selumetinib] + CC(=O)O[C@@]12CO[C@@H]1C[C@H](O)[C@@]1(C)C(=O)[C@H](O)C3=C(C)[C@@H](OC(=O)[C@H](O)[C@@H](NC(=O)OC(C)(C)C)c4ccccc4)C[C@@](O)([C@@H](OC(=O)c4ccccc4)[C@H]21)C3(C)C [Docetaxel] (first compound 0.015 µM, partner dose 0.0001 µM) | 56.7 | 56.5 | 52.1 | 87 | 37.2 | 44.9 | 44.2 | 39.9
Cn1cnc2c(F)c(Nc3ccc(Br)cc3Cl)c(C(=O)NOCCO)cc21 [selumetinib] + COc1ccc(C2=N[C@@H](c3ccc(Cl)cc3)[C@@H](c3ccc(Cl)cc3)N2C(=O)N2CCNC(=O)C2)c(OC(C)C)c1 [Nutlin-3] (first compound 0.015 µM, partner dose 0.1 µM) | 88.8 | 82.7 | 101 | 79 | 98 | 68.8 | 74.3 | 61
COc1cc([C@@H]2c3cc4c(cc3[C@@H](O[C@@H]3O[C@@H]5CO[C@@H](C)O[C@H]5[C@H](O)[C@H]3O)[C@H]3COC(=O)[C@H]23)OCO4)cc(OC)c1O [etoposide] + NC1(c2ccc(-c3nc4ccn5c(=O)[nH]nc5c4cc3-c3ccccc3)cc2)CCC1 [MK2206] (first compound 0.02 µM, partner dose 0.4 µM) | 80.9 | 69.6 | 95.6 | 92.4 | 67.5 | 71.1 | 76.2 | 62.4
